# Out of some 410,000 compounds screened, about 310 (0.076%) were called active. The shares of active, inactive and inconclusive entries below differ from those in the screen. Calls follow the shape of the dose curve; as a rule, active = well fitted curve in the direction sought with a large enough effect; inconclusive = small, poorly fitted or top-dose-only effect; inactive = flat fitted curve, though single readings scatter. Potencies beside an inconclusive call are fits to weak or partial responses and may not hold up.
# Molecular target: DNA dC->dU-editing enzyme APOBEC-3G (Homo sapiens) (UniProt Q9HC16)
# Experiment: qHTS for Inhibitors of Vif-A3G Interactions: qHTS; also: nearly all actives have a fitted effect of over 60% in size
# Conditions: HeLa A3G-eYFP + Vif (tagged APOBEC3G with the HIV-1 protein that degrades it), YFP fluorescence, overnight; series mostly up to 46.1 µM
# Method in brief: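 Read-out is eYFP fluorescence (Ex 488/Em 500-530) from Vif-expressing HeLa A3G-eYFP cells; more signal means A3G escaped Vif-mediated degradation. Cells plated overnight, compound pinned in, incubated overnight at 37 deg C.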
# Potency is read from the fitted curve at half-maximal effect; tags tell the direction and shape of the fitted curve.
# Sequence of UniProt Q9HC16 (Q9HC16 whole entry, looked up): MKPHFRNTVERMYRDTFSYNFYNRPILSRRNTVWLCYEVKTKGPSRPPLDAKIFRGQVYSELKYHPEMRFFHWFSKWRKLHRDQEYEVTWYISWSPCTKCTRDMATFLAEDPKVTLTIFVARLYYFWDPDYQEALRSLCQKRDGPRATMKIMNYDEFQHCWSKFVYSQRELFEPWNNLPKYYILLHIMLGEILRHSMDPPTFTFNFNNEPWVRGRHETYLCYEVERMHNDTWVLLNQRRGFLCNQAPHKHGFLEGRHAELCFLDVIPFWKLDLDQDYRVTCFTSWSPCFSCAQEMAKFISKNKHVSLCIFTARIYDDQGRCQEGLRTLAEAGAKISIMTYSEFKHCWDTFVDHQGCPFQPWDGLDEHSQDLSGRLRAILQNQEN
row,Compound,Potency
1,Cc1ccc(CSCC(=O)N(CCC(C)C)c2c(N)n(Cc3ccccc3)c(=O)[nH]c2=O)cc1,"inconclusive: 17.8 µM [inhibitor, single point]"
2,CCOc1ccc(N(CC(=O)Nc2ccccc2OC)S(C)(=O)=O)cc1,"inconclusive: 12.6 µM [inhibitor, partial curve]"
3,Oc1ccc(-c2nnc(Nc3cccc(O)c3)c3ccccc23)cc1,"inconclusive: 25.1 µM [inhibitor, single point]"
4,COc1ccc(-c2cnc3c(NC=O)cc(-c4ccc(S(C)(=O)=O)cc4)cn23)cc1OC,"inconclusive: 12.6 µM [inhibitor, single point]"
5,O=C1CC(c2ccccc2)CC2=C1C=Nc1ccccc1N2 (stereo not drawn),"inconclusive: 22.4 µM [inhibitor, single point]"
6,Cc1[nH]c2ccccc2c1/C=N/Nc1nc2ccccc2[nH]1,"inconclusive: 35.5 µM [inhibitor, single point]"
7,CCOC(=O)/C(C)=N/Nc1nc(-c2ccc(NC(C)=O)cc2)cs1,inactive
8,Oc1c(C=Nc2cccc3nsnc23)ccc2ccccc12,"inconclusive: 28.2 µM [inhibitor, single point]"
9,Nc1c(C(=O)Nc2ccc(S(=O)(=O)N3CCCC3)cc2)sc2nc3cc4c(cc3cc12)CCC4,active: 12.6 µM
10,COc1ccc(NC(=O)Cn2ncc(Cl)c(Cl)c2=O)cc1S(=O)(=O)N1CCOCC1,"inconclusive: 11.2 µM [inhibitor, partial curve]"
11,Cc1cc(C)c2cc3c(N)c(C(=O)N4CCc5ccccc5C4)sc3nc2c1,"inconclusive: 20 µM [inhibitor, single point]"
12,COC(=O)c1[nH]c2ccc(F)cc2c1NS(=O)(=O)c1ccc(OC)cc1,"inconclusive: 1.41 µM [inhibitor, full curve, poor fit]"
13,Cc1cccc(C(=O)NCC(=O)N2CCN(S(=O)(=O)c3cc(C)ccc3C)CC2)c1,"inconclusive: 22.4 µM [inhibitor, single point]"
14,Cc1cc2c(cc1C)C(c1ccccc1Br)CC(=O)N2 (stereo not drawn),"inconclusive: 14.1 µM [inhibitor, single point]"
15,CC1=Nc2cc(C(=O)NCCN3CCOCC3)ccc2Sc2c(C)ccc(C)c21,"inconclusive: 8.91 µM [inhibitor, partial curve]"
16,Cc1cc(NC(=O)NC(=O)c2ccccc2NC(=O)CN(C)C)ccc1Oc1ncc(Br)cn1,"inconclusive: 4.47 µM [inhibitor, full curve, poor fit]"
17,Cc1nc(SCc2nc3ccc(C(F)(F)F)cc3[nH]2)c2oc3ccccc3c2n1,"inconclusive: 17.8 µM [inhibitor, single point]"
18,Cc1ccc(NNS(=O)(=O)c2ccc(C)cc2)cc1,inactive
19,O=C(OC1CCOC1=O)c1ccccc1C(=O)c1ccc(Cl)c([N+](=O)[O-])c1 (stereo not drawn),"inconclusive: 35.5 µM [inhibitor, partial curve, poor fit]"
20,CCN(CC(=O)NCc1cccs1)c1nnnn1-c1ccccc1,"inconclusive: 35.5 µM [inhibitor, single point]"
21,CC1(C)CC(=O)C2=C(C1)Oc1nc3ccccc3cc1C2C(C#N)C#N (stereo not drawn),"inconclusive: 12.6 µM [inhibitor, partial curve, poor fit]"
22,CN(C)c1c([N+](=O)[O-])cc(N2C(=O)C=CC2=O)cc1[N+](=O)[O-],inactive

row,Compound,Potency
1,COc1ccc(S(=O)(=O)N2c3cc(C)ccc3OCC2C(C)(C)C)cc1 (stereo not drawn),"inconclusive: 3.55 µM [inhibitor, single point]"
2,CCCCOc1ccccc1NC(=O)Cn1c(-c2nonc2N)nc2ccccc21,"inconclusive: 1.78 µM [inhibitor, full curve, poor fit]"
3,CCN(CC)C(=O)C1CCCN(c2ccc([N+](=O)[O-])cc2/C=N/NC(=O)c2cccc([N+](=O)[O-])c2)C1 (stereo not drawn),"inconclusive: 28.2 µM [inhibitor, single point]"
4,CCc1[nH]nc2c1C(C1C=CCCC1)C(C#N)=C(N)O2 (stereo not drawn),"inconclusive: 17.8 µM [inhibitor, single point]"
5,Cn1c(=O)oc2cc(S(=O)(=O)Nc3ccccc3)ccc21,inactive
6,Cn1c(=O)[nH]c(=O)c2c1nc(OC(=O)c1ccccc1)n2CC(O)COc1ccc(F)cc1 (stereo not drawn),inactive
7,Cc1ccc(-c2nc3ccccc3[nH]2)cc1NC(=O)c1ccc2c(c1)OCO2,inactive
8,NC(=O)C[N+]1(CC#CC(O)(c2ccccc2)c2ccccc2)CCCC1,inactive
9,COc1cc(CNCCSc2nnnn2C)ccc1OCc1c(F)cccc1Cl,"inconclusive: 17.8 µM [inhibitor, partial curve, poor fit]"
10,COC(=O)c1c(-c2ccccc2Cl)noc1/C=C/N(C)C,"inconclusive: 17.8 µM [inhibitor, partial curve, poor fit]"
11,Cc1nc2ccc(Cl)cc2nc(C)/c1=N\O,"inconclusive: 35.5 µM [inhibitor, single point]"
12,O=C(Nc1ccccc1C(=O)O)c1cccc(NC(=O)c2ccccc2Br)c1,inactive
13,CC(Nc1nc(N2CCNCC2)nc2ccccc12)c1ccccc1 (stereo not drawn),"inconclusive: 35.5 µM [inhibitor, single point]"
14,Cc1csc2c(N3CCN(C(=O)Nc4ccc(Cl)c(Cl)c4)CC3)ncnc12,inactive
15,COc1cccc(-c2nc(-c3ccccn3)no2)c1OC,inactive
16,O=C(C1CCCCC1)N1CCN=C1SCc1cccc([N+](=O)[O-])c1,inactive
17,Cc1[nH]nc(-c2ccc(O)cc2O)c1Oc1ccccc1,"inconclusive: 11.2 µM [inhibitor, partial curve, poor fit]"
18,O=C(O)Cn1nc(N2CCN(c3ccccc3)CC2)ccc1=O,inactive
19,CCc1ccc(S(=O)(=O)c2cnc(SCC(=O)Nc3ccc(OC)cc3OC)[nH]c2=O)cc1,inactive
20,CCn1c2ccccc2c2cc(NC(=O)CNCc3ccccc3OC)ccc21,"inconclusive: 2.24 µM [inhibitor, full curve]"
21,CSc1ccccc1NC(=O)COC(=O)/C=C/c1ccco1,"inconclusive: 11.2 µM [inhibitor, single point]"

# Reference: PubChem BioAssay AID602310 (National Center for Advancing Translational Sciences (NCATS), 2012)
